Assay results: ChEMBL document CHEMBL4888484, “Replenishing the malaria drug discovery pipeline: Screening and hit evaluation of the MMV Hit Generation Library 1 (HGL1) against asexual blood stage Plasmodium falciparum ,using a nano luciferase reporter read-out” (2022)
The campaign covered roughly 150,000 compounds. About 540 (0.36%) showed an effect of 50% or more. The list shows a part of the results.

Each compound was assayed on Plasmodium falciparum (assay: Primary screen in NF54 nanoGlo assay, in single point, at 2uM, 72h; a lower Z score goes with more inhibition). Conditions: timepoint 72 hour.
Format: functional, Erythrocyte

| SMILES | % Inhibition | Z score |
| --- | --- | --- |
| COc1cccc([C@@H](O)CN(Cc2ccccc2)S(=O)(=O)Cc2ccccc2)c1 | -2% | 0.17 |
| CC(C)(C)n1nnc(CNC(=O)Nc2cccc3c2OCCC3)n1 | 1% | -0.09 |
| COCCN1CCCn2nc([C@H]3CCCN(Cc4ccc(C)o4)C3)cc2C1=O | -8% | 1.55 |
| Cc1cccc(NC(=O)N2CCC(N3CCC[C@H](C(=O)N4CCCC4)C3)CC2)c1 | 12% | -1.59 |
| Cc1cccc(NS(=O)(=O)c2cc(-c3nc(-c4ccc(Cl)cc4)no3)cs2)c1C | -5% | 0.79 |
| CNc1nc(CN2CCN(c3nccc(N)n3)C[C@@H](O)C2)cs1 | -5% | 0.99 |
| O=C(Cc1cccnc1)N[C@H]1CCOC2(CCOCC2)C1 | -5% | 0.99 |
| CCOCCC(=O)NC(c1ccc2c(c1)CCO2)[C@H]1C[C@@H](O)C1 (stereo not given in full) | 10% | -1.32 |
| NS(=O)(=O)c1cccc(-n2ccnc2-c2ccc3cccc(F)c3n2)c1 | -5% | 0.69 |
| CCN1C(=O)COc2ccc(NC(=O)NCc3nnc(C)o3)cc21 | -9% | 0.92 |
| Cc1n[nH]cc1CN(C)C(=O)CCc1cn[nH]c1 | -11% | 2.09 |
| Cn1ncc(Cl)c1C=Cc1ccncn1 | -3% | 0.32 |
| CC(C)c1ccc(NC(=O)c2nc(CCc3ccccc3)n(-c3ccccc3)n2)cc1 | -19% | 3.67 |
| Cc1cccnc1CN1C[C@@](C)(c2ccccc2)CCC1=O | 8% | -1.19 |
| CC(=O)N1CCN(Cc2cc(C#N)n(C)c2)C[C@H](O)C1 | 5% | -0.97 |
| O=C1NCCCC[C@@H]1NS(=O)(=O)NCc1ccccc1 | 5% | -0.64 |
| CC(CNC(=O)N1CCCC(CO)C1)Oc1ccc(Cl)cc1 (stereo not given) | -4% | 0.38 |
| CS(=O)(=O)CCn1cnc(-c2ccccc2)c1-c1cnc2ccccc2c1 | 1% | -0.27 |
| Cc1ccc(S(=O)(=O)N[C@@H](CC(=O)NC2CCCC2)c2ccco2)cc1 | 19% | -2.23 |
| Cc1ccc(CCN2C(=O)CC[C@@H]3CN(C(=O)c4ccon4)CC[C@@H]32)o1 | -15% | 1.3 |
| CCOC(=O)N1CCC(NCc2cnc(C(C)(C)C)nc2)CC1 | -10% | 0.98 |
| O=C(Cn1nnc(C2CC2)n1)N1CCCc2ccccc21 | -4% | 0.74 |
| Cc1cc(N2CCN(CCCO)CC2)n2nc(C)cc2n1 | -9% | 1.98 |
| CC(C)(C)C(=O)N1CC(Nc2ncccn2)C1 | -6% | 1.02 |
| COc1ccccc1-c1cc(C(=O)NCc2cccc(C(F)(F)F)c2)nc2cc(-c3ccccc3)nn12 | -22% | 2.41 |
| Cc1nccc(O[C@H]2CCCN(C(=O)c3ccccc3Br)C2)n1 | 2% | -0.26 |
| C[C@H](C(=O)O)C1CCC(NC(=O)OC(C)(C)C)CC1 (stereo not given in full) | 2% | -0.33 |
| CCCCS(=O)(=O)Nc1ccc(C)c(N2CC[C@H](N(C)C)C2)c1 | 6% | -0.69 |

| SMILES | % Inhibition | Z score |
| --- | --- | --- |
| C[C@H]1C(=O)NCCN1C(=O)CN1C(=O)c2ccccc2C1=O | -2% | 0.24 |
| CNC(=O)CN1CCN(C(=O)[C@@H]2CCCC[C@@H]2c2ccccc2)CC1 | 1% | -0.08 |
| CCN(Cc1ccco1)Cc1c(C)noc1C | -18% | 2.57 |
| Cc1ccc(C(=O)O[C@@H](C)c2nc3ccccc3n2C)cn1 | -6% | 0.69 |
| Cc1ccsc1-c1c(-c2ccccc2)ncn1CCN1CCNC1=O | 0% | 0 |
| Cn1c(C(=O)NCCCN2CCCCC2)c(N2CCCC2=O)c2cc(F)ccc21 | 5% | -0.77 |
| Cn1nc(-c2cnccn2)cc1CNC(=O)c1ccsc1 | 12% | -1.49 |
| CC(C)(C(=O)NC(CO)C(C)(C)C)C1=NC(C(C)(C)C)CO1 (stereo not given) | 3% | -0.63 |
| Cc1cccc([C@@H](C)C(=O)NCc2ccc(C(=O)O)c(C3CC3)n2)c1 | 11% | -1.56 |
| C[C@@H](CNC(=O)Nc1nccs1)S(N)(=O)=O | -1% | 0.11 |
| O=C(c1cn(CCN2CCOCC2)nn1)N1CCc2sccc2C1 | -4% | 0.57 |
| CC(C)n1ncc2cc(S(=O)(=O)N[C@H]3CC(=O)N(C)C3=O)ccc21 | -19% | 1.85 |
| Cc1ccc(NC(=O)CC(=O)N(C)CCN2CCCCCC2)c(C)c1 | 2% | -0.23 |
| Cc1cc(Cn2ccc(-c3cccc(-c4nccs4)c3)n2)no1 | -7% | 1 |
| Cc1cnc(C)c(N2CCCN(c3cncc(F)c3)CC2)n1 | 29% | -4.25 |
| CN1CCc2nc(C=Cc3cccc(Cl)c3Cl)[nH]c(=O)c2C1 | 13% | -1.2 |
| Cc1c(NCc2cccnc2)cccc1C(=O)N1CCN2CCNC(=O)[C@@H]2C1 | -14% | 1.4 |
| CC1(C)CCc2nc(CN(CCC#N)CCC#N)sc2C1 | 5% | -0.62 |
| O=C(NCc1ccc2ccccc2n1)c1cc(CN2CCC(O)CC2)on1 | -8% | 1.5 |
| CC[C@@H](C(=O)NCc1ccncc1C)n1cccn1 | -1% | 0.09 |
| Cc1noc(C)c1C(=O)N1CCc2ccccc2C1 | 14% | -1.27 |
| CN1CCN(C(=O)CCN2CCCc3ccccc3C2)CC1 | 0% | 0.01 |
| Cc1ccc(C)c(-c2n[nH]cc2CN2CC[C@@H](O)C[C@H]2C(=O)O)c1 | 1% | -0.15 |
| COc1cc(C(=O)O[C@@H](C)c2ccc(-n3cccn3)cc2)on1 | -16% | 1.84 |
| Nc1c(Oc2cccc3cccnc23)ncnc1N1CCCCC1 | 6% | -0.69 |
| O=C(C[C@@H](c1ccc(Cl)c(Cl)c1)N1CCOCC1)N1CCC2(CCC2)C1 | -9% | 1.26 |
| CC(C)N1CCCN(S(=O)(=O)c2ccc(-c3cc(C(F)(F)F)[nH]n3)o2)CC1 | -9% | 1.39 |
